{"source": "paper PMC4336329", "about": "(PLoS ONE, 2015)", "note": "The campaign covered roughly 310,000 compounds. About 2,200 (0.71%) showed an effect of 50% or more. The effect is printed as a negative number. The list shows a part of the results.", "data": [{"molecular_target": "human ether-à-go-go-related gene (hERG) potassium channel (human, UniProt Q12809)", "sequence (Q12809 whole entry, looked up)": "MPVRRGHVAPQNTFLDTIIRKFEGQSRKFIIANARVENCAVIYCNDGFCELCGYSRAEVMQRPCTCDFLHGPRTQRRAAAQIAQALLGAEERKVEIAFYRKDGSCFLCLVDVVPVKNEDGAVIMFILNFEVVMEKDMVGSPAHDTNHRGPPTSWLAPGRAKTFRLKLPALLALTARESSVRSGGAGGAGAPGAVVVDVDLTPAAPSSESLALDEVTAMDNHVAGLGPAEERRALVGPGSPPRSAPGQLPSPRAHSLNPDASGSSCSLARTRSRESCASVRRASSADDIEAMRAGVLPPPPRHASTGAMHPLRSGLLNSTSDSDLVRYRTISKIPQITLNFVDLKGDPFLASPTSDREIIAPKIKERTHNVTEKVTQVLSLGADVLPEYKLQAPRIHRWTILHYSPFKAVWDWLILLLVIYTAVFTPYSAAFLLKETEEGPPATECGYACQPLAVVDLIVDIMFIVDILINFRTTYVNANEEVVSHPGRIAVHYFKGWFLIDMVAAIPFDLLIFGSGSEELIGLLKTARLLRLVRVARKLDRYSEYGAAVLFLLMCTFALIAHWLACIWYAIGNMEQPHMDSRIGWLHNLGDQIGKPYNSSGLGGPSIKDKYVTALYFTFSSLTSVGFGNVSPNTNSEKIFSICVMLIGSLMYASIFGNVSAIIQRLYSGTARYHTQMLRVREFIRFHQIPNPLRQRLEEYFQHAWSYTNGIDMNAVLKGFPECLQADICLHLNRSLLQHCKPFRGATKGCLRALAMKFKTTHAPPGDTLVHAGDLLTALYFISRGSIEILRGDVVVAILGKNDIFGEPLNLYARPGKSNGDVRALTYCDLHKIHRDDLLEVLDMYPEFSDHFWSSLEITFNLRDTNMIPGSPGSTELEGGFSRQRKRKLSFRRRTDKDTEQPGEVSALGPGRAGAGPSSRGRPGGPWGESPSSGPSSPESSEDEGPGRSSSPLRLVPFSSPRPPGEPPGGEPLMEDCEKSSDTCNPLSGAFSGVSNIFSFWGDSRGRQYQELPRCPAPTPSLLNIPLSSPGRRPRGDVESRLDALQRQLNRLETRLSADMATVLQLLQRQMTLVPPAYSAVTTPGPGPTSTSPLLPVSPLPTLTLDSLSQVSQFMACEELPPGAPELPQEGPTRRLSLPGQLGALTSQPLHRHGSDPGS", "test": "primary screen, population patch clamp on CHO cells stably expressing hERG", "units": {"hERG current change (%, negative = inhibition) at 1uM": "%"}, "values": [{"smiles": "CC(=O)NC1=NN(C(C)=O)C(C)(CC(=O)OC(C)(C)C)S1", "note": "(centres unmarked)", "hERG current change (%, negative = inhibition) at 1uM": 10.3}, {"smiles": "CCCN1C(=O)c2ccccc2NC1c1ccc(Cl)cc1", "note": "(centres unmarked)", "hERG current change (%, negative = inhibition) at 1uM": 10.4}, {"smiles": "N=c1ncn(Cc2ccccc2)c2nc(SCCOc3ccccc3)[nH]c12", "hERG current change (%, negative = inhibition) at 1uM": 5.42}, {"smiles": "CCOc1ccccc1C(=O)N1CCCCC1C", "note": "(centres unmarked)", "hERG current change (%, negative = inhibition) at 1uM": 23.7}, {"smiles": "Cc1ccc(NC(=S)Nc2ccc3[nH]c(=O)[nH]c3c2)cc1C", "hERG current change (%, negative = inhibition) at 1uM": 16}, {"smiles": "Cc1sc(NC(=O)c2ccccc2)c(C(=O)c2ccccc2)c1C", "hERG current change (%, negative = inhibition) at 1uM": -1.45}, {"smiles": "Cc1cc2c(s1)CCCCC(=O)N2", "hERG current change (%, negative = inhibition) at 1uM": 14.4}, {"smiles": "CC1CCCN(Cc2c(C(=O)N3CCc4ccccc4C3)nc3ccc(Cl)cn23)C1", "note": "(centres unmarked)", "hERG current change (%, negative = inhibition) at 1uM": 3.44}, {"smiles": "Cc1ccc(-c2csc3nc4cc(C(N)=O)ccc4c(=O)n23)cc1", "hERG current change (%, negative = inhibition) at 1uM": -2.01}, {"smiles": "Cc1nnc(NC(=O)CSc2nnc(Cc3cccn3C)n2-c2ccccc2)s1", "hERG current change (%, negative = inhibition) at 1uM": 9.39}, {"smiles": "Cc1cc2nc(C(C)(C)C)cc(N)n2n1", "hERG current change (%, negative = inhibition) at 1uM": 1.9}, {"smiles": "CC1(C)N=C(/C=N/O)C=[N+]1[O-]", "hERG current change (%, negative = inhibition) at 1uM": 20.9}, {"smiles": "COc1ccc(S(=O)(=O)Nc2c(C)n(C)n(-c3ccccc3)c2=O)cc1C(=O)O", "hERG current change (%, negative = inhibition) at 1uM": 8.32}, {"smiles": "O=C(Nc1cc(Br)ccc1O)C1CC(c2ccccc2Cl)=NO1", "note": "(centres unmarked)", "hERG current change (%, negative = inhibition) at 1uM": 18.5}, {"smiles": "Cc1occc1-c1nnc(SCC(=O)N2CCOCC2)o1", "hERG current change (%, negative = inhibition) at 1uM": 12.7}, {"smiles": "CC1(C)CC(=O)C=C(Nc2ccc(Br)cc2F)C1", "hERG current change (%, negative = inhibition) at 1uM": 10.5}, {"smiles": "COc1ccc(NC(=O)c2sccc2C)c([N+](=O)[O-])c1", "hERG current change (%, negative = inhibition) at 1uM": 15}, {"smiles": "Cc1cccc(OCC(=O)NCC(=O)N/N=C/c2c(C)[nH]c3ccccc23)c1", "hERG current change (%, negative = inhibition) at 1uM": 4.8}, {"smiles": "COCC(=O)Nc1nnc(SCC(=O)NCc2cccs2)s1", "hERG current change (%, negative = inhibition) at 1uM": 11.1}, {"smiles": "NC(=S)N/N=C/c1ccccc1OC(=O)/C=C/c1ccccc1", "hERG current change (%, negative = inhibition) at 1uM": 11.4}, {"smiles": "COc1ccc(-c2noc(CNC(=O)c3ccc4c(c3)OCO4)n2)cc1OC", "hERG current change (%, negative = inhibition) at 1uM": 13.6}, {"smiles": "Cc1ccc(C)c(NC(=O)CN(C)C(=O)c2ccncc2)c1", "hERG current change (%, negative = inhibition) at 1uM": 8.43}, {"smiles": "COC(=O)c1cccc(NC(=O)CSc2nnc(C)n2Cc2ccccc2)c1", "hERG current change (%, negative = inhibition) at 1uM": 0.797}, {"smiles": "Cc1nn(CC(C)C)c(=S)[nH]c1=O", "hERG current change (%, negative = inhibition) at 1uM": 5.82}, {"smiles": "CCOC(=O)/C(=N/Nc1ccccc1)Sc1nnnn1-c1ccc(C)cc1", "hERG current change (%, negative = inhibition) at 1uM": -4.06}, {"smiles": "CCOC(=O)COc1cc(Br)c(C2NC(=O)NC(C)=C2C(C)=O)cc1OCC", "note": "(centres unmarked)", "hERG current change (%, negative = inhibition) at 1uM": 12.4}, {"smiles": "COc1cc(NS(=O)(=O)c2ccc(NC(=O)/C=C/c3cccc([N+](=O)[O-])c3)cc2)ncn1", "hERG current change (%, negative = inhibition) at 1uM": 9.11}, {"smiles": "Cc1ccc(-c2nc3ccccc3c(=O)n2NC(=O)c2cccs2)cc1", "hERG current change (%, negative = inhibition) at 1uM": 8.81}, {"smiles": "O=C1/C(=C\\Nc2ccccc2)CCN1c1ncccn1", "hERG current change (%, negative = inhibition) at 1uM": 12.7}, {"smiles": "Cc1cc2nc(C)c3c(n2n1)CCC3", "hERG current change (%, negative = inhibition) at 1uM": 9.49}, {"smiles": "CCCC(C(=O)NCCC(C)C)N(Cc1ccccc1Cl)C(=O)c1snc(C(N)=O)c1N", "note": "(centres unmarked)", "hERG current change (%, negative = inhibition) at 1uM": 13.8}, {"smiles": "CCN(CC)CCN1C(=O)C(=O)/C(=C(/O)c2c(C)[nH]c(C(=O)OC)c2C)C1c1cccc(OC)c1", "note": "(centres unmarked)", "hERG current change (%, negative = inhibition) at 1uM": -5.96}, {"smiles": "O=C(Nc1ccc(Cl)cn1)C1COc2ccccc2O1", "note": "(centres unmarked)", "hERG current change (%, negative = inhibition) at 1uM": -1.26}, {"smiles": "O=c1[nH]c(=S)n(C2CC2)c(O)c1/C=N/Nc1cccc2ccccc12", "hERG current change (%, negative = inhibition) at 1uM": 9.98}, {"smiles": "CCc1ccc(C(O)(c2ccccc2OC)C(CN2CCOCC2)c2ccccc2)cc1.Cl", "note": "(centres unmarked)", "hERG current change (%, negative = inhibition) at 1uM": -6.35}, {"smiles": "O=C(c1coc(=O)c2ccccc12)N1CCN(Cc2ccccc2)CC1", "hERG current change (%, negative = inhibition) at 1uM": -12.2}, {"smiles": "CCOC(=O)c1sc2nc(C)cc(C)c2c1N", "hERG current change (%, negative = inhibition) at 1uM": -0.853}, {"smiles": "Cc1ccc(CCNC(=O)c2nn(C)c3c2CS(=O)(=O)c2ccccc2-3)cc1", "hERG current change (%, negative = inhibition) at 1uM": 4.49}, {"smiles": "CCC(Sc1ccc(Cl)cc1)C(=O)Nc1nnc(-c2cccc([N+](=O)[O-])c2)s1", "note": "(centres unmarked)", "hERG current change (%, negative = inhibition) at 1uM": 11.3}, {"smiles": "COc1ccc(OC)c(S(=O)(=O)Nc2cc3c(cc2N2CCCC2)n(C)c(=O)c(=O)n3C)c1", "hERG current change (%, negative = inhibition) at 1uM": 0.155}, {"smiles": "CC(C)(C)NC(=O)C(c1ccsc1)N(CCc1ccccc1)C(=O)Cn1nnc2ccccc21", "note": "(centres unmarked)", "hERG current change (%, negative = inhibition) at 1uM": 14.4}, {"smiles": "COC(=O)C(CCSC)NC(=O)CNS(=O)(=O)c1ccc(Br)cc1", "note": "(centres unmarked)", "hERG current change (%, negative = inhibition) at 1uM": -4.14}, {"smiles": "CCCc1cc(=O)c2c(O)ccc(OC)c2o1", "hERG current change (%, negative = inhibition) at 1uM": 10}, {"smiles": "Fc1cccc2sc(Nc3nc4cc5c(cc4s3)OCO5)nc12", "hERG current change (%, negative = inhibition) at 1uM": 23}]}]}
